Data from article PMC12136788.
Some of the results follow.

B1: 27142941_27143061_3044_3pUTR_ENSG00000154727_ENST00000400075|human|control|control (ssRNA)
RNA: GGGAGUUCUACAGUCCGACGAUCCAUUCCAAACCACUACCAGAAUUGCUAACAAUGCCAUCUUGCCUGUAUUAUCAUGCCUUUUUCUCCUAGUUAAGUCAAAAGCAUUAACUGAGCUCUUAAGAAGCUUUUUAAGAGGACAGACAACAGAGGAUUGAGCAUCA
B2: chr16:22092171:22092172:+_ENSG00000185716_ENST00000542527|hu_hu|FALSE|FALSE (ssRNA)
RNA: GGGAGUUCUACAGUCCGACGAUCCAAUUUAGACAUUCAUCAGCCUGGUAAACAAACUUUGCCAGCAAAUAGAAGUCCUACUAUUGUAAAGAAAAUUGAUAAGACAAAAAGUACAUAUGAUGACCCAACUACUGUGUUGUUGGGCAACAGAGGAUUGAGCAUCA
B3: chr6:40197388:40197389:+_ENSMUSG00000057716_ENSMUST00000061740|mus_mus|mus_mus_mus_hu_False|38_108 (ssRNA)
RNA: GGGAGUUCUACAGUCCGACGAUCGAGUUGUCAGUUUGGAUUUAUUCCACCUCUGUUUGGGUGCUAGCCACUAAGACUGUUAUUUUGGGAUUCAUGGCCUUGAAGAUCAAGAGGGAAAGGAAGAGGAUGGAAAGAGUCAAGAGUCAACAGAGGAUUGAGCAUCA
B4: 47073773_47074001_3129_CDS_ENSG00000130985_ENST00000335972|human|control|control (ssRNA)
RNA: GGGAGUUCUACAGUCCGACGAUCCAUGAAGAAGGAAUAGAGCAUGGACACGCCCUGGGACAGCAUGGUGAUCUCUAAUUUGUGCUCUGUCUUAAAAUAGUCGAGGAACUGUUUGAGGGUCAUCUCCUCACCAUUAGGCUGCAGCAACAGAGGAUUGAGCAUCA
B5: 123088758_123088878_90_5pUTR_ENSMUSG00000028114_ENSMUST00000029759|mouse|control|control (ssRNA)
RNA: GGGAGUUCUACAGUCCGACGAUCCUGCUCACCACCCCGACAGACUCCGCGCCCGCCAAAAUGCAAAUCCACCUGCCAAACCAGGAAACACCGGGUCCCGCCCCGCAGAGAUUCUGACCCGGAGACUUUCACGUCCCUCAGGAGCAACAGAGGAUUGAGCAUCA
B6: chr4:122741918:122741919:-_ENSG00000145386_ENST00000274026|hu_hu|motif|central (ssRNA)
RNA: GGGAGUUCUACAGUCCGACGAUCGUCUGGCUGUUUCUUCAUGUAACCCACUUUAGGUUUACAUUUAACCUCCAUUUCCCGGAGGUAUGUGUGAAUAUCCUCAUGGUAGUCUGGUACUUCAUUAACACUCACUGGCUUUUCAUCCAACAGAGGAUUGAGCAUCA
B7: 14352133_14352253_3167_3pUTR_ENSMUSG00000013076_ENSMUST00000013220|mouse|control|control (ssRNA)
RNA: GGGAGUUCUACAGUCCGACGAUCCUGUCCUGGUUUUGCAGUUGCUACUGCAACUGCCCAUCUGGAGCUCUUCUUUCAGCCUCUGUUCUCAUCUGUCAGCAUGCUGGCAAGCGCCACAGGACGACGCUAGAUGAGCACUUCCAUCAACAGAGGAUUGAGCAUCA
B8: chr8:38067834:38067835:+_ENSG00000156735_ENST00000287322|hu_mus|motif|central (ssRNA)
RNA: GGGAGUUCUACAGUCCGACGAUCCUUUGUCAGCAUUUCUUCCAGAAGCCAAUACGCUUUGUCUGUCUUUUUUCCGGCAAACUCUUCGGCUUCUUGCUCAAGAAACUGCACCUUCUCCAGCACAUGUAUGAUCUUUUUAAUACUCAACAGAGGAUUGAGCAUCA
B9: 125865521_125865641_1298_3pUTR_ENSMUSG00000033904_ENSMUST00000106557|mouse|control|control (ssRNA)
RNA: GGGAGUUCUACAGUCCGACGAUCUCUGGAGCAGCGGGAGGAGCAGCUCCUGCAGGCAGGUCUAUCUUAGAAAAGCUAGCUAAGCCUGCCGUGCCCAUGCUGCUUGCUUGUGAAGCACCUUGGAGGAGAACAUUUGACUUAUUACAACAGAGGAUUGAGCAUCA
B10: 90058951_90059071_3067_3pUTR_ENSG00000197147_ENST00000439853|human|control|control (ssRNA)
RNA: GGGAGUUCUACAGUCCGACGAUCUAGGGCUAGACACUCAGUUGCUUUAAUAAGACAUUUAGUUAUGGUUCAUCAUAAUAGUCACCCAUUCUUCAUCUUUAUUAACUUAGAAAAUUUUACUUCUCAUUUAAAGCCCUGGAGCAUCAACAGAGGAUUGAGCAUCA
B11: chr1:46159212:46159213:+_ENSG00000159596_ENST00000372025|hu_mus|hu_hu_hu_mus_True|18_88 (ssRNA)
RNA: GGGAGUUCUACAGUCCGACGAUCUCUGAUCCCUCCCAAGAAAGCUAGGAAACUGGCUCCAUAAGCCAUCUGAGUGAAAGCUAGGACGGGGAUAUAAGACUUUGUUAUUACCAUGAGCAGUGGUGGAGCAGUAAAGGGGAUUAACAACAGAGGAUUGAGCAUCA
B12: chr19:37005844:37005845:-_ENSG00000254004_ENST00000523638|hu_hu|FALSE|FALSE (ssRNA)
RNA: GGGAGUUCUACAGUCCGACGAUCAGAAACUUUUUCACAUUCAUAAGGUUUCUCUCCAGUGUGAUGUUUCUGAUGAGAAAGGAAGUUUUCCUUCUGGCUGAAGGCUUUUCCACAUUUAUUACAUUUAUAUGCCUUCUUUCCUGUCAACAGAGGAUUGAGCAUCA
B13: chr15:91426070:91426071:+_ENSG00000140564_ENST00000268171|hu_hu|motif|central (ssRNA)
RNA: GGGAGUUCUACAGUCCGACGAUCGGCAGCCAGGGAGGAGCAGGGCGGACGGUGGGUGUGAGAACGUGGGUAGUCCAGCUGCGGCCCCCAUUAAAAAUACAAAAACAAAUCAUCAGCAUCUAAAGUGAAAUAAUCACAAAGUGACAACAGAGGAUUGAGCAUCA
B14: chr8:29959424:29959425:+_ENSG00000104660_ENST00000321250|hu_hu|motif|central (ssRNA)
RNA: GGGAGUUCUACAGUCCGACGAUCGAAGGGCACAUCCAAGCAUCAAAAACAUCAGUCCGAUUGCUCCUCCAAAGGACAAACGGAUCAAAGCUUUGAUGCCUGCCAUGGCGGUGACGUCGCUCCUGGCUCCACGACCCGAGGCGGCAACAGAGGAUUGAGCAUCA
B15: chr5:92956547:92956548:-_ENSG00000113391_ENST00000395965|hu_mus|motif|central (ssRNA)
RNA: GGGAGUUCUACAGUCCGACGAUCCCGCUGAAGCCAUAUUGCUUUGACAGUUGCACUCAUCUAGAAAUAAUGCAAAACGCGGUUUAGACGGACACAUCACGACCCUGCGCUGGAGAAAGAAAGCAAUCUAAUGGGGGCCAGGAGCAACAGAGGAUUGAGCAUCA
B16: chr1:29069439:29069440:+_ENSG00000198492_ENST00000541996|hu_hu|FALSE|FALSE (ssRNA)
RNA: GGGAGUUCUACAGUCCGACGAUCUGCUGGUUUUGGAGGAGCAAUGGUGGCUGGAGGCAAACUAUUGGAAGCCACGAUGUUACUAGUAAUGGACCCGCUACCAACAGCAGAACCUACAACUUUUGGAACAUUGCUUGCAACUUCCAACAGAGGAUUGAGCAUCA
B17: 44929261_44929381_2462_CDS_ENSG00000147050_ENST00000377967|human|control|control (ssRNA)
RNA: GGGAGUUCUACAGUCCGACGAUCUGUUGCUGUUGAAAUGGCUGAAGAUGGUGAAGAGGCAACAGAGUUAUCAGUCUUUGUAUGAACAGCUGGGUGGAUGUUAUUGACUUUGUCACAGGUUCCAGUACCCACAUUGUUAUUGGCCAACAGAGGAUUGAGCAUCA
B18: chr9:91931296:91931297:+_ENSG00000123975_ENST00000314355|hu_hu|hu_hu_hu_mus_True|78_108 (ssRNA)
RNA: GGGAGUUCUACAGUCCGACGAUCAGAUUGACGAUCCCCAGCUGCACUUCAUUUUUGUUGAUCUUUUGGAAGAGGUCGUCUAAAGAGAAGAAUAUGCGGUUCUGGCUCAUGAAUCAUGUAAUGAACCCAUCCUAGACUCUGUUGCAACAGAGGAUUGAGCAUCA
B19: chr5:40767622:40767623:-_ENSG00000132356_ENST00000397128|hu_hu|FALSE|FALSE (ssRNA)
RNA: GGGAGUUCUACAGUCCGACGAUCAUCUUUGAUUGUGGCCCUCUUCAUGGGAUCCACCUGCAGCAUAUGUUUCAAAAGGCUAAUCACAGAAGGAUUUAAAUAUUGAGGGGUAUAGAAGAUCCCAUCACAUAUCUUCUUAAAAAGCAACAGAGGAUUGAGCAUCA
B20: chr11:23509083:23509084:-_ENSMUSG00000042208_ENSMUST00000043356|mus_mus|FALSE|FALSE (ssRNA)
RNA: GGGAGUUCUACAGUCCGACGAUCUGUGCCCCACAAACGCCAAUAAACAUCUCUCCAAGAUUUUAAUUCUUCAAAAAGACUAUUCAAAUAUUCAUGUACAUCCCAGGUUUUAUCUCUUAUGUGGAUGUAGAUAAUAUUUCCAUGCAACAGAGGAUUGAGCAUCA
B21: chr15:76463590:76463591:-_ENSMUSG00000059323_ENSMUST00000168185|mus_mus|FALSE|FALSE (ssRNA)
RNA: GGGAGUUCUACAGUCCGACGAUCACGGCUCUGGGCACUACCCACGCCUCGGAUGGCCGCUUGGUAAGCCGCCCGGCAAGCACUUGACGUGGCUGUCUCUCUACUUUUGGGUGGGUCAGGAAUCUUGACUUCACCCUGCUGUGUCAACAGAGGAUUGAGCAUCA
B22: chr3:176767854:176767855:-_ENSG00000177565_ENST00000430069|hu_hu|hu_hu_hu_mus_False|68_98 (ssRNA)
RNA: GGGAGUUCUACAGUCCGACGAUCGACAUCCUUGUUACUUGGAACAUCCUGCCCUCCUUCCCGUAUGCAAUGUCUAAGCACGAGCUGCGUAGGGCCACUCGUGCUGUUCUCACUGAGGUUCCAGAUUCUUGCCGUGGAGUCUCCCAACAGAGGAUUGAGCAUCA

Biological target: T1, UNK ZnF1-3 (human, UniProt Q9C0B0 31-174)
T1 sequence: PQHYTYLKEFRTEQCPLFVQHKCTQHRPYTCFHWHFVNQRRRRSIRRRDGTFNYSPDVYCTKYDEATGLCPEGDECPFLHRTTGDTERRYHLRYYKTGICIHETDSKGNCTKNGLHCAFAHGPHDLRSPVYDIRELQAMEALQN
Assay: nsRBNS (natural sequence RNA bind-n-seq); RBNS binding buffer (assumed for nsRBNS): 25 mM Tris pH 7.5, 150 mM KCl, 3 mM MgCl2, 0.01% Triton X-100, 500 ug/ml BSA, 20 U/ml SUPERase-In, 4 C; UNK is unkempt and MSI1 is Musashi-1; names of the RNAs are library labels; protein concentration not given here; high values mean tight binding

Binder | binding signal [enrichment R]
B1 | 1.42
B2 | 0.51
B3 | 1.46
B4 | 1.77
B5 | 1.21
B6 | 0.393
B7 | 0.409
B8 | 0.313
B9 | 0.805
B10 | 1.09
B11 | 1.56
B12 | 0.471
B13 | 1.94
B14 | 1.49
B15 | 1.35
B16 | 1.12
B17 | 1.56
B18 | 0.901
B19 | 1.46
B20 | 0.932
B21 | 0.584
B22 | 0.676
